The full ranking holds about 33,000 sequences; the median of “E-score (-0.5 to 0.5)” is about -0.056, and the highest 2% start at about 0.38. Some of the results follow.
molecular target: Stb4 (UniProt P50104); assay: PBM E-score (8-mer binding enrichment) (E-score (-0.5 to 0.5)); higher = stronger / more preferred TF binding; most listed sequences are background and not binding sites; conditions: protein concentration: 200 nM; construct: GST-DNA-binding domain
Description: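 Universal 'all 10-mer' protein binding microarrays (Agilent AMADID 015681) probed with GST-tagged S. cerevisiae TFs (full-length or DBD) made by in vitro transcription/translation (PURExpress), about 100-200 nM. Bound TF was detected with fluorescent anti-GST. Each ungapped 8-mer (which stands for itself and its reverse complement) is scored by the PBM enrichment score (E-score), a modified Wilcoxon-Mann-Whitney statistic from -0.5 to +0.5, computed with the Universal PBM Analysis Suite. Scale: above 0.35 generally sequence-specific binding.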

Sequence	PBM E-score
TAGGGGCA	-0.229
GCTCTTCA	-0.219
CGGATGAA	0.433
CTTTAAAC	-0.118
CATACTCA	0.0149
ATCAGTGG	-0.0961
GTGGGATA	0.0024
ACATTGGG	-0.0778
ACCAGGCA	-0.265
AGAGGGCC	-0.196
AAATTGGG	0.0125
ATTCTACA	-0.0259
TACTTAGA	-0.21
CTAACGCC	-0.0765
AGTGCACA	-0.0186
AATATGGC	-0.0316
AGCCTGTC	-0.131
CAAAATGC	-0.121
CCATGAGA	-0.0163
GCTATGTA	-0.232
AGGGTTAT	-0.0871
AGCATCTG	-0.135
ATGTTTTA	-0.24
TAACCTGA	-0.0906
AGAGAGCC	-0.116

Sequence	PBM E-score
AGCTCTCC	0.0268
TACAACCA	-0.0767
CTTTTATA	-0.0466
ACGAATCC	0.009
CCTTACAG	-0.233
CCGCAGTC	0.112
ACGGACGA	0.0137
TTGATCAA	-0.205
GTTGCGGA	0.229
CAGTAACA	0.0723
CCAAGCCC	-0.177
CCTTTAGC	-0.117
CATACCGC	0.0129
AGCTCGTG	0.0631
GCCTCCAC	-0.253
CTGCACGA	-0.138
AAACGTTT	0.165
ACCGATCC	0.374
CCACGGTA	0.126
ACGCGCTG	-0.0936
TGGGGGAA	-0.18
GTCACCAA	-0.278
AATGGGGA	-0.247
GACACAAC	-0.159
GCATATGA	-0.0199

Sequence	PBM E-score
AAACAGTA	-0.104
CGAGCCTA	0.127
AATGGGCG	-0.00171
AAGAGTTA	-0.197
GAAACCAA	0.104
ACGTGCTG	-0.144
AAGCGCGC	0.00851
ATAGGGCC	-0.0867
TCCTAGAA	0.0302
CCGAGTTC	0.396
TCCGGGCA	0.32
CGATACGC	0.176
CCTCGATC	-0.0971
GAGGAGAC	-0.0994
AGTGTTCA	-0.0759
CTGTGCCC	0.064
ACCCGTCC	0.175
GGCGTTAA	0.0285
ACAGCGGT	-0.105
GTCAACTA	-0.144
ATCACGGA	0.305
ACAGAGCC	-0.145
CCGTGTCG	0.251
CACCAATC	0.0462
ACGAGTCT	-0.142

Sequence	PBM E-score
CTGGCAGA	-0.0155
CTACGTCA	-0.0185
CACGTTAG	-0.166
GAATCAGC	-0.0158
CCAAAGCG	0.0505
ATATTGGG	-0.0321
AGTTAACT	0.0736
CATGTCAA	-0.218
AATGACCC	-0.0646
ATCTCAAC	0.0299
CCCTATTA	-0.0824
ACAGGGTG	-0.173
AGAGCGCG	-0.0383
CAGGCCAA	-0.0749
CATCGAAA	-0.118
ACTCGATA	-0.127
AATGTCGG	0.267
AATACGCG	-0.077
CCCCTATA	-0.147
TATCATCA	-0.175
AGGGGGCA	-0.145
ATCTGTTA	-0.111
CGATCCCA	0.0781
AAGAAACT	-0.156
AACATAAT	-0.00773

Sequence	PBM E-score
ATTATGGC	-0.0605
GTGGTATA	-0.168
CAAAATGA	-0.149
CCCCCTGA	-0.303
ACGAGCAA	-0.0941
CCTTATCC	0.175
CAATGAAC	-0.0689
ACACCACG	-0.219
ACCATGAG	-0.154
CTATCGTA	-0.199
AGATCCTC	0.0598
CAATTTTC	0.0831
ATCGTTTA	-0.0716
AGCTGGAG	-0.223
ATGCGCCC	0.0117
ATGAAGGG	-0.114
GACAGTAA	0.041
TGAATAAA	-0.157
CGTTGGGA	-0.27
CTACGGAG	0.137
GCCAGACC	-0.0555
CGGGATAG	0.191
CAAGCTAC	-0.0425
AGGGCTTG	-0.349
GCCCAGGC	-0.21

Sequence	PBM E-score
ACTGCAAT	-0.0373
CGCCGAAG	0.372
ACCACTGG	-0.103
CGACCACA	-0.047
AGCAGCAG	-0.176
ACTCGCGA	-0.12
GACGCGCC	-0.102
ACAACGAA	-0.091
ACAATTCC	-0.00681
GACCATAA	-0.0497
CGCGTACA	-0.19
AGTGCGTC	-0.216
TAAAGGAA	-0.157
CGTAGACC	-0.072
CCGCCGGA	0.366
GCTCACGA	-0.228
GATTGTCC	0.181
ATGCTGTC	-0.134
ATGCGTGA	-0.149
AACCAAGC	-0.109
AACCACGC	-0.11
ACAGTTAC	-0.11
CGGTCGGA	0.388
ACAATATC	0.0526
CTATGGTA	-0.0297

Sequence	PBM E-score
ATGCTACA	-0.163
CCTGCACG	-0.169
AAGGTAGC	-0.234
CGTAAGAA	0.0311
CTATTGAC	-0.0362
AGAGCTGC	-0.127
AGTATAGC	-0.0774
GATAATCC	0.19
AGCGTTCG	-0.00865
ATAGGGCG	-0.0285
ATAAGCCA	-0.169
CGCCCACA	0.0446
ACAGGTGG	-0.226
CTGCTCGA	-0.187
AAACTCGA	-0.0699
CAGAAGAC	-0.172
CGCGTGCC	0.122
AGGTCCAG	-0.216
ACCATATG	-0.311
TAGCCCCA	-0.101
ACACATGG	-0.187
CCCCCTCC	-0.107

— the supplement of paper PMC3334620
